B1: chr17:3662948:3663056:-|3pUTR|ENSG00000213977|unk|FALSE|unique (ssRNA)
RNA: GGGAGUUCUACAGUCCGACGAUCAGUUUGAUACAAAAUGUUUUUAUCGUACUCUUUGGAGAUGCCCAUUCUACUUUUGAAUUUAGCUUUUACUAAUUCGCAUCUGGAAGCUCAGCAAGUGCACAAGCCUUACUUUGGUUACCGCAACAGAGGAUUGAGCAUCA
B2: chr13:75481370:75481471:-|CDS|ENSG00000136111|msi1|total|mutant (ssRNA)
RNA: GGGAGUUCUACAGUCCGACGAUCCUCAGCGCGCCCUUCCUGCGUUGCGUCCCCGCGCCGGGCGCUGGGGCCUCGGGGGGCACCCGUCCGUCGGCCACGCAGCCCAACCCGGCGGUAUUCAUCUUCGAGCACAAGGCGCAGCAUCAACAGAGGAUUGAGCAUCA
B3: chr10:128098031:128098192:-|3pUTR|ENSG00000148773|msi1|FALSE|unique (ssRNA)
RNA: GGGAGUUCUACAGUCCGACGAUCCAUCUUCAUUUACUUUCCACUUUGCCCCCUGUCCUCUCUGUGUUCCCCAAAUCAGAGAAUAGCCCGCCAUCCCCCAGGUCACCUGUCUGGAUUCCUCCCCAUUCACCCACCUUGCCAGGUCAACAGAGGAUUGAGCAUCA
B4: chr10:15076158:15076259:-|3pUTR|ENSG00000176244|unk|total|mutant (ssRNA)
RNA: GGGAGUUCUACAGUCCGACGAUCAGAUCCCUUAAGAUAAAUAUCCCCCAAAACAGUGUACCUCUAUUCCCUGCAUAAAAAUUCCGAUUUGGAAUGGUAUGACCAGAGGAACCGAUCCACUUCAUGUUACUACAACAACAAAACCAACAGAGGAUUGAGCAUCA
B5: chr3:69105919:69106020:+|3pUTR|ENSG00000144746|msi1|FALSE|bound_elsewhere (ssRNA)
RNA: GGGAGUUCUACAGUCCGACGAUCGUGCUGCUUCUGAUUUUUCUUGCAUUUUAAAUUCUCAGCCAACCUACAGCCAUGAUCUUUAGCACAGUGAUAUCACCAUGACUUCACAGACAUGGUCUAGAAUCUGUACCCUUACCCACACAACAGAGGAUUGAGCAUCA
B6: ENSG00000124766:be:win_351|CDS|ENSG00000124766|bound_else_gene|NA|bound_elsewhere_windowed (ssRNA)
RNA: GGGAGUUCUACAGUCCGACGAUCCAAGCACAUGGCUGACUACCCCGACUACAAGUACCGGCCCAGGAAGAAGGUGAAGUCCGGCAACGCCAACUCCAGCUCCUCGGCCGCCGCCUCCUCCAAGCCGGGGGAGAAGGGAGACAACAACAGAGGAUUGAGCAUCA
B7: ENSG00000107863:be:win_501|CDS|ENSG00000107863|bound_else_gene|NA|bound_elsewhere_windowed (ssRNA)
RNA: GGGAGUUCUACAGUCCGACGAUCGUUUACAAAGGAUGUCACAGCACUGGCAUAUUCUCAAGAUGCCUACCUGAAAGGCAACGAAGCUUAUAGCGGCAAUGCCCGCAAUAUACCUGAACCUCCACCAAUCUGCUAUCCCUGGCUCAACAGAGGAUUGAGCAUCA
B8: chr12:108522223:108522324:-|3pUTR|ENSG00000075856|msi1|FALSE|unique (ssRNA)
RNA: GGGAGUUCUACAGUCCGACGAUCUCAGUCGGGUUUUCUAUAUUUUUUUAACUUAACAUUUUUUAAUAUAACCGAUUAAAAAGUAGACAGAACAGUAAAAUAAACUCCUGUGUGCCUACCAUUCAGCUUCCAGCAUUCCUCAACCAACAGAGGAUUGAGCAUCA
B9: chr17:58301230:58302447:-|three_prime_utr|ENSG00000005379|control|control|control (ssRNA)
RNA: GGGAGUUCUACAGUCCGACGAUCGGGAAUCAAAGAGCCUUGGUGAAGGUCAGAGCUAAAUGGCUCCUUAAGGAUGAACUCUCUAGAGAAGCACCUUCCUCCUACAGGAGGGGAAACUGAGCCCACAGUGAGUAUGUAACUUGACAACAGAGGAUUGAGCAUCA
B10: chr11:113276125:113276317:+|3pUTR|ENSG00000149294|msi1|total|mutant (ssRNA)
RNA: GGGAGUUCUACAGUCCGACGAUCGUCCGUGUAAAACCGCUGCCUUUUAUUUUUUAAGGUAACAAAUACCACCCCGAGGCCGGCCGGAUCAUCCCACGCUUGCUUCCGCACAGGACAACUUUACAAAACAUGAUUGUUUACAGCCAACAGAGGAUUGAGCAUCA
B11: chr14:53039561:53039662:-|3pUTR|ENSG00000100523|unk|FALSE|unique (ssRNA)
RNA: GGGAGUUCUACAGUCCGACGAUCUCAAACUAUAUUUUUGUUACAGCAAACUACAUUCCAUUUGCCUUUAAAUGCUUGCAUUUUAGUUAUUGUACUGGCUACCUGUUUUUGUCUGCCCAGCAUCCUGUUUCCCCUCCUUUUGGACAACAGAGGAUUGAGCAUCA
B12: chr12:54395726:54395827:-|3pUTR|ENSG00000161638|msi1_unk|total|mutant (ssRNA)
RNA: GGGAGUUCUACAGUCCGACGAUCAAGAACACUAACUAUGCAUGGUGCCCCAGGACCAGCUCAGGACAGAUGCCACACAAGGACCGAUGCUGGCCCAGGGCCCAGAGCCCAGCUCCAAGGGGAAUCAGAACUCAAAUGGGGCCACAACAGAGGAUUGAGCAUCA
B13: ENSG00000136451:be:win_3251|3pUTR|ENSG00000136451|bound_else_gene|NA|bound_elsewhere_windowed (ssRNA)
RNA: GGGAGUUCUACAGUCCGACGAUCCUUAGUGUAAAAUAAUUUUAUAAAUGAUCUUUUGUACUUUAGGACAUUAAAUUGUACAACUUUUGUAUAUAUAAAAGCUUAGGAACUUUCUGUUUAGCAGGAAGGCAACACAUUCCUACACAACAGAGGAUUGAGCAUCA
B14: chr11:130877263:130877364:-|3pUTR|ENSG00000120451|msi1|FALSE|unique (ssRNA)
RNA: GGGAGUUCUACAGUCCGACGAUCCAGUCCUUUAACAACACCAGCAUGAAGGCAAAGGUGUUUUGUCAGACUGCAACAUCUAUUAGAAAGGCAAGGCAACUGGGAAUUGCUGGAGAAGGAUAAAUCAGGAGGAAUUGCUGGUAGCAACAGAGGAUUGAGCAUCA

The other results are listed elsewhere or left out.

The text below walks through data of article PMC12136788.

The test concerns the target MSI1 full-length (mouse, UniProt Q61474 1-362). In words: nsRBNS (natural sequence RNA bind-n-seq); RBNS binding buffer (assumed for nsRBNS): 25 mM Tris pH 7.5, 150 mM KCl, 3 mM MgCl2, 0.01% Triton X-100, 500 ug/ml BSA, 20 U/ml SUPERase-In, 4 C; UNK is unkempt and MSI1 is Musashi-1; names of the RNAs are library labels; protein concentration not given here; high values mean tight binding.
Sequence of UniProt Q61474 (Q61474 whole entry): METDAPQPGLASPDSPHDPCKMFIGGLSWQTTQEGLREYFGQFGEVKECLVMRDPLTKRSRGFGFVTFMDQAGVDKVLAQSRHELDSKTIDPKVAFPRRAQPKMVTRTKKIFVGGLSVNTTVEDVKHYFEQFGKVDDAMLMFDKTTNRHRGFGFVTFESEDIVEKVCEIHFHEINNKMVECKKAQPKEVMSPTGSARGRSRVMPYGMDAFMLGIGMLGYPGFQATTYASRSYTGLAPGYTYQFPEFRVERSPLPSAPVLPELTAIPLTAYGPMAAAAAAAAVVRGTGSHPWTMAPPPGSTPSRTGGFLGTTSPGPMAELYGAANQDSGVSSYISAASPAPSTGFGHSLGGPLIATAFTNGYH
B1 returned a binding signal of 0.695 enrichment R.

As to B2, the binding signal came to 0.239 enrichment R.

In turn, B3 displayed a binding signal of 1.16 enrichment R.

B4 displayed a binding signal of 0.407 enrichment R.

With B5, the binding signal was found to be 0.576 enrichment R.

As to B6, the binding signal stood at 0.392 enrichment R.

In turn, B7 gave a binding signal of 0.392 enrichment R.

The molecule B8 gave a binding signal of 1.08 enrichment R.

As for B9, the binding signal stood at 0.992 enrichment R.

In the case of B10, the binding signal turned out to be 0.624 enrichment R.

B11 gave a binding signal of 1.58 enrichment R.

As for B12, the binding signal was found to be 0.515 enrichment R.

Regarding B13, the binding signal is 10.7 enrichment R.

B14 returned a binding signal of 1.33 enrichment R.
